Results on 54 compounds are retold here after ChEMBL document CHEMBL4888484, “Replenishing the malaria drug discovery pipeline: Screening and hit evaluation of the MMV Hit Generation Library 1 (HGL1) against asexual blood stage Plasmodium falciparum ,using a nano luciferase reporter read-out” (2022).

One may read the % Inhibition as the relative decrease from the control value, in per cent.

The whole screen tested about 150,000 compounds, of which about 540 (0.36%) showed an effect of 50% or more. Some of the results follow.

The test system of the assay is Plasmodium falciparum. Nature of the assay: Primary screen in NF54 nanoGlo assay, in single point, at 2uM, 72h; a lower Z score goes with more inhibition. The assay is classed as functional, Erythrocyte. As to conditions: timepoint 72 hour.
For the compound `CCN(CC)C(=O)c1coc(CN2CCN(Cc3ccccc3)CC2)n1`, the “% Inhibition” value is reported as -8% and the Z score is on record as 1.17.
With `CCc1ncc2c(n1)CN(C(=O)c1cc(OC)c(OC)c(OC)c1)C2`, the “% Inhibition” value was -10% and the Z score came to 1.59.
On the same counts, the results for `COc1cc([C@@H]2c3cccn3CCCN2Cc2ccc(OC)c(OC)c2OC)cc(OC)c1OC` are -6% and 0.61.
For the compound `O=C(c1ccc(F)cc1)N1CC[C@H](n2nccn2)C1`, the “% Inhibition” value is listed as -13% and the Z score worked out at 1.97.
On to `CCc1nnc(CN2CCN(C)c3ccccc32)o1`, for which the “% Inhibition” value was -4% and the Z score is on record as 0.63.
In the case of `CCC1([C@@](O)(C#CCN(Cc2ccccc2)C(C)C)c2ccccc2)CCCC1`, the “% Inhibition” value was 0% and the Z score is given as -0.02.
The corresponding values for `CCc1nn(-c2ccccc2)c(NC(=O)N2CCOC[C@@H](O)C2)c1C` are -9% and 0.87.
On to `COc1cc(C(=O)N2C[C@@H](C)Cc3cccc(F)c32)ncn1`, for which the “% Inhibition” value is 20% and the Z score was -2.52.
`COc1ccc(CNC(=O)N2C[C@H](C)OC3(CCCCC3)C2)cc1OC(F)F`: the “% Inhibition” value is 34% and the Z score was -4.59.
Turning to `CC(=O)N1CCN(Cc2nc3cc(C)ccc3s2)CCC12CCOCC2`, the “% Inhibition” value is -6% and the Z score was found to be 1.21.
Consider `CCn1ncnc1CN1CC[C@]2(OC)CC[C@@H](Oc3ccccn3)C[C@H]12`, for which the “% Inhibition” value is given as -3% and the Z score was 0.61.
In the case of `CCc1c(NC[C@H]2CCS(=O)(=O)C2)cnn1CC(C)C`, the “% Inhibition” value is on record as -2% and the Z score worked out at 0.42.
As to `CN(Cc1nccs1)[C@H]1CC12CCN(c1ncnc3[nH]ccc13)CC2`, the “% Inhibition” value is reported as -14% and the Z score was determined as 1.82.
Consider `CN(c1ccc2nccnc2n1)C1CCC(CO)CC1` (stereo not drawn), for which the “% Inhibition” value is given as -12% and the Z score was 1.37.
With `CCC(NC(=O)N[C@@H]1C[C@H]1c1cccc(F)c1)c1c(C)noc1C` (stereo partly drawn), the “% Inhibition” value amounted to 0% and the Z score worked out at 0.04.
With `Cn1cnc2c1CCN(c1cccc(C#N)n1)C2`, the “% Inhibition” value is on record as -10% and the Z score amounted to 1.2.
In the case of `C[C@@H](c1nc(Cc2cccnc2)nn1CC(F)(F)F)N1CCOCC1`, the “% Inhibition” value is listed as -2% and the Z score is recorded as 0.32.
`O=C1[C@H](c2cccnc2)N(Cc2ccco2)C(=O)CN1c1ccccc1`: the “% Inhibition” value is -7% and the Z score is reported as 1.33.
For the compound `O=C(COCC1CC1)Nc1cnccc1N1CCCCC1`, the “% Inhibition” value was -11% and the Z score is reported as 1.75.
As for `CCN1CCN(Cc2cc3cc(C)ccc3nc2N2CCC[C@H](O)C2)CC1`, the “% Inhibition” value is recorded as -5% and the Z score stood at 1.01.
Consider `CNC(=O)c1noc(CNC(=O)c2cnc(NC(C)C)nc2)n1`, for which the “% Inhibition” value is on record as 1% and the Z score is recorded as -0.15.
Consider `CCCc1noc(-c2ccnc(-n3ncc(C(=O)N4CCCC4)c3C)c2)n1`, for which the “% Inhibition” value is listed as -21% and the Z score was determined as 3.34.
As to `COc1ccc(CN2CC[C@](C)(O)C2)nn1`, the “% Inhibition” value is given as -5% and the Z score came out at 0.69.
`CCC1Oc2ccc(NC(=O)CC(C)(C)C)cc2CN(C(CC)c2ccccc2)C1=O` (stereo not drawn): the “% Inhibition” value is -10% and the Z score is 1.74.
On to `COCC1=CCN([C@@H](C)C(=O)N2CC(=O)Nc3ccccc32)CC1`, for which the “% Inhibition” value came out at 3% and the Z score is listed as -0.45.
Consider `CN(Cc1ccc2c(c1)OCO2)C(=O)c1ccoc1`, for which the “% Inhibition” value is given as -2% and the Z score is 0.42.
With `CC(C)(C(=O)NS(=O)(=O)c1cccnc1)C1CCC1`, the “% Inhibition” value is listed as -14% and the Z score is given as 2.23.
As for `COc1ccccc1CNC(=O)[C@@H]1CNC[C@H](C(=O)Nc2ccc3c(c2)CCC3)C1`, the “% Inhibition” value was -14% and the Z score is on record as 1.61.
As to `C=CCN(C)C(=O)[C@@H](C)C1CC[C@@]2(C)Cc3sc(NCc4ccccc4)nc3[C@@H](C)[C@@H]2[C@H]1O` (stereo partly drawn), the “% Inhibition” value is reported as -7% and the Z score is reported as 1.13.
For `NC(=O)c1csc(C(=O)N[C@H]2C[C@H](c3ccc(F)cc3)C2)c1`, the “% Inhibition” value worked out at 7% and the Z score was -0.91.
As to `CC(CNc1ccccn1)N1CCOCC1C` (stereo not drawn), the “% Inhibition” value came out at 38% and the Z score is -5.82.
On the same counts, the results for `Cc1nn([C@@H](C)C(=O)NCCN2CCOCC2)c2ccccc12` are -6% and 0.88.
On the same counts, the results for `CN1C[C@@]2(C)CN(C(=O)c3c[nH]c4ccccc34)C[C@@](C)(C1)C2O` (stereo partly drawn) are 0% and 0.03.
In the case of `COc1ccc(C(=O)Nc2nnc([C@H]3CC(=O)N(c4ccc(F)cc4)C3)o2)cc1OC`, the “% Inhibition” value is given as 7% and the Z score was -1.06.
Regarding `CCOC(=O)N1CCN([C@H]2CCCN(C(=O)CC3CCCC3)C2)CC1`, the “% Inhibition” value is given as -14% and the Z score is given as 1.36.
On the same counts, the results for `Cc1cc2nc3n(c(=O)c2[nH]1)CCCC3` are -13% and 1.43.
As to `COc1ccsc1S(=O)(=O)N1CC(CN2CCOCC2)C1`, the “% Inhibition” value was determined as 5% and the Z score is on record as -1.02.
Turning to `CC(C)NC(=O)Cc1noc([C@H]2CCO[C@@H]2c2ccnn2C(C)C)n1`, the “% Inhibition” value was determined as 11% and the Z score is -1.19.
As to `O=C(N[C@H]1CCNC1)c1ccc(-c2ccc(Cl)cn2)cc1`, the “% Inhibition” value came to 5% and the Z score is on record as -0.79.
For the compound `CCOC(=O)Cc1nnc([C@H](C)NC2CCCCCCC2)[nH]1`, the “% Inhibition” value is listed as -1% and the Z score was 0.13.
As for `O=C(NC[C@@H](CO)Cc1ccc(Cl)cc1)c1cncnc1C1CC1`, the “% Inhibition” value stood at 35% and the Z score is recorded as -3.99.
As to `CC(=O)Nc1cccc(-n2ccnc2-c2ccnc(C(C)C)n2)c1`, the “% Inhibition” value is given as -12% and the Z score was found to be 1.13.
Take `Cc1nc(C)c2c(n1)O[C@@H](Cc1ccc(C(N)=O)cc1)C2`: the “% Inhibition” value is on record as -8% and the Z score came out at 1.21.
On to `O=S(=O)(NC1(c2nnc[nH]2)CCC1)c1ccc(OC2CC2)cc1`, for which the “% Inhibition” value is -4% and the Z score worked out at 0.68.
Take `CCC1(C)COC2(OC1)C(=O)N(CN1CCOCC1)c1ccccc12` (stereo not drawn): the “% Inhibition” value was -9% and the Z score was found to be 1.
On the same counts, the results for `O=C(CCc1cccnc1)Nc1nc(C2CC2)no1` are 10% and -1.36.
The corresponding values for `C[C@H]1c2cccn2CCN1CC(=O)N(C)c1ccccc1` are -5% and 0.41.
As to `O=C(Nc1nc2n(n1)CCCC2)c1cc(C2CC2)[nH]n1`, the “% Inhibition” value is listed as -1% and the Z score came to 0.1.
As for `Cc1ccc(-n2c(-c3sc(Nc4ccccc4)nc3C)nc3ccccc3c2=O)cc1`, the “% Inhibition” value is on record as -7% and the Z score was 0.94.
For `CCC(CC)NC(=O)Cn1cc(C(F)(F)F)ccc1=O`, the “% Inhibition” value is -11% and the Z score is listed as 1.32.
For `COc1ccc(-c2cc(C(=O)N3CCN(c4ccccc4OC)CC3)n(-c3ccc(Cl)cc3)n2)c(OC)c1`, the “% Inhibition” value is listed as -9% and the Z score worked out at 0.95.
Take `Cc1cc(NCc2cc(C)on2)nc(Nc2cccc(O)c2)n1`: the “% Inhibition” value is -12% and the Z score was 2.36.
On the same counts, the results for `Cc1csc(N(C)C(=O)c2cnn(CC(=O)NC3CCCCC3)c2)n1` are 3% and -0.32.
On the same counts, the results for `Cc1cccc(C(=O)N2CCC3(CC2)C[C@H]2C(=O)NCCN2C3)c1` are -8% and 1.54.
